Source: article PMC4336329 (PLoS ONE, 2015)
Screen size: about 310,000 compounds; about 2,200 (0.71%) showed an effect of 50% or more. Effects have a minus sign here. Some of the results follow.

molecular target: human ether-à-go-go-related gene (hERG) potassium channel (human, UniProt Q12809); experiment: primary screen, population patch clamp on CHO cells stably expressing hERG
Sequence (Q12809 whole entry, looked up): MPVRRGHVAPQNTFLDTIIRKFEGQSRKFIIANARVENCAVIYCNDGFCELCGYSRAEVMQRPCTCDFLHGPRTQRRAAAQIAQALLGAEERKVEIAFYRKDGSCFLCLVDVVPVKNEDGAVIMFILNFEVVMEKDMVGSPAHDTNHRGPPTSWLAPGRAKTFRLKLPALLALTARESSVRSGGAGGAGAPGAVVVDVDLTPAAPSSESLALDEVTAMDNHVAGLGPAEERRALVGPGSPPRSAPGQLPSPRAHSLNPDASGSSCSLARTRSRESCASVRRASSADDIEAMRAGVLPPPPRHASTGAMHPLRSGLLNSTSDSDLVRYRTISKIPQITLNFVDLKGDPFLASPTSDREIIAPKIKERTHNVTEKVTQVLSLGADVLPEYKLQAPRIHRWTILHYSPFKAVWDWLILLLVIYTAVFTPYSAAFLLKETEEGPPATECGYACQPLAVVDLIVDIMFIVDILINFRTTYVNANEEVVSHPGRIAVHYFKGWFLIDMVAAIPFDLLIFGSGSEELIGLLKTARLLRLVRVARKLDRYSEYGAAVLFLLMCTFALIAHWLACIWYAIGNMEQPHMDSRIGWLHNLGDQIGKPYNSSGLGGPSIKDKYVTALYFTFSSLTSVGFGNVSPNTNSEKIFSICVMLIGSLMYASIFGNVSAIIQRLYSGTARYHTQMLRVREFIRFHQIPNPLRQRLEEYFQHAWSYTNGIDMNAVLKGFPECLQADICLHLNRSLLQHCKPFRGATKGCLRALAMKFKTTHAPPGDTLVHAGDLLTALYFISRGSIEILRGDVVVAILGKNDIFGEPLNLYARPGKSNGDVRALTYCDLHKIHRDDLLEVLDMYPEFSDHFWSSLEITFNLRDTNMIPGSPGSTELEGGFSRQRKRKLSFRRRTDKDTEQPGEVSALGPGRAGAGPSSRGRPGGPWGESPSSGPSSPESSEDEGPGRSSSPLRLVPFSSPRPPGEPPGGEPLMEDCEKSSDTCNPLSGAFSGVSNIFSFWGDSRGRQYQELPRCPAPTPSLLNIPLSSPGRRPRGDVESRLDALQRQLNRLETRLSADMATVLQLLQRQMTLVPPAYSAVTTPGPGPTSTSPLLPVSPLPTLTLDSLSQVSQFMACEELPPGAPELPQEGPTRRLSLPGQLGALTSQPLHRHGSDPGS

**Q.** Which “hERG current change (%, negative = inhibition) at 1uM” value does the source give for `COc1cc(-c2cc(C(=O)Nc3ccc(O)cc3)c3ccccc3n2)cc(OC)c1OC` here?
**A.** 1.69%

**Q.** For `COC(=O)C1=C(C(=O)OC)[C@@H]2N(C)c3ccccc3[C@@]23C[C@@H](C(=O)OC)N=C3N1`, which “hERG current change (%, negative = inhibition) at 1uM” value is on record?
**A.** 3.74%

**Q.** For `CS(=O)(=O)N1CCCC(C(=O)Nc2ccc(Br)cc2F)C1` (stereo not drawn), which “hERG current change (%, negative = inhibition) at 1uM” value is on record?
**A.** 9.43%

**Q.** Which “hERG current change (%, negative = inhibition) at 1uM” value does the source give for `N#Cc1cccc(NC(=O)COC(=O)Cn2nc(-c3ccccc3)oc2=O)c1` here?
**A.** 11.6%

**Q.** For `COc1cc(NC(=O)CSc2nnc(Cn3nnc4ccccc43)n2C)cc(OC)c1`, which “hERG current change (%, negative = inhibition) at 1uM” value is on record?
**A.** 8.39%

**Q.** `O=C(CNS(=O)(=O)c1ccccc1)Nc1ccc(F)cc1F` was tested. Which “hERG current change (%, negative = inhibition) at 1uM” value did it give?
**A.** -4.93%

**Q.** How did the “hERG current change (%, negative = inhibition) at 1uM” value turn out when `Nc1nnc(CCS(=O)(=O)c2ccc(Br)cc2)s1` was run?
**A.** 4.11%

**Q.** Which “hERG current change (%, negative = inhibition) at 1uM” value does the source give for `Cc1[nH]c2ccccc2c1C(=O)C(=O)NCCOc1ccccc1` here?
**A.** 10.9%

**Q.** With `Cc1cccc(S(=O)(=O)NCCNS(=O)(=O)c2cccc(C)c2)c1` as the compound, how does the “hERG current change (%, negative = inhibition) at 1uM” value read?
**A.** 13.4%

**Q.** `Cc1ccc(C)c(/C=N/Nc2nc3ccccc3c(=O)n2O)c1` was tested. Which “hERG current change (%, negative = inhibition) at 1uM” value did it give?
**A.** 6.1%

**Q.** How did the “hERG current change (%, negative = inhibition) at 1uM” value turn out when `COc1cccc(NC(=O)CCS(=O)(=O)c2ccc(Br)cc2)c1` was run?
**A.** 13.3%

**Q.** How did the “hERG current change (%, negative = inhibition) at 1uM” value turn out when `O=C(CSc1nc2ccccc2c(=O)n1Cc1ccco1)NCc1ccccc1` was run?
**A.** -0.938%

**Q.** `COc1cc(Br)cc(-c2nc3c(c(=O)[nH]c(=O)n3Cc3ccccc3)n2C)c1O` was tested. Which “hERG current change (%, negative = inhibition) at 1uM” value did it give?
**A.** 11.9%

**Q.** Which “hERG current change (%, negative = inhibition) at 1uM” value does the source give for `COc1ccc(-c2nsc3c(N4CCN(C(=O)c5ccco5)CC4)ncnc23)cc1` here?
**A.** 7.36%

**Q.** With `CCN(CC)c1ccc2cc(C(N)=O)/c(=N\NC(=O)c3ccncc3)oc2c1` as the compound, how does the “hERG current change (%, negative = inhibition) at 1uM” value read?
**A.** -1.32%

**Q.** How did the “hERG current change (%, negative = inhibition) at 1uM” value turn out when `COc1ccc(CC(=O)OCc2nnc(C3COc4ccccc4O3)o2)cc1OC` (stereo not drawn) was run?
**A.** 6.32%

**Q.** Which “hERG current change (%, negative = inhibition) at 1uM” value does the source give for `COc1cc(OC)c(/C=N/n2c(C)nnc2C)c(OC)c1` here?
**A.** 6.13%

**Q.** For `Cc1noc(C)c1S(=O)(=O)Nc1ccc(C(=O)NC2CCCCC2)cc1`, which “hERG current change (%, negative = inhibition) at 1uM” value is on record?
**A.** 13.2%

**Q.** Which “hERG current change (%, negative = inhibition) at 1uM” value does the source give for `CC(=O)Oc1c(C)c(C)c2c(c1C)CC[C@@](C)(CCC[C@H](C)CCC[C@H](C)CCCC(C)C)O2` here?
**A.** 17.4%

**Q.** `O=C(COC(=O)C1(c2cccc(F)c2)CCCC1)NCc1ccc2c(c1)OCO2` was tested. Which “hERG current change (%, negative = inhibition) at 1uM” value did it give?
**A.** 6.8%

**Q.** `Cc1nc2ccn(Cc3ccccc3)c(=O)c2cc1C(=O)N1CCN(c2ccccc2)CC1` was tested. Which “hERG current change (%, negative = inhibition) at 1uM” value did it give?
**A.** -16.5%

**Q.** Which “hERG current change (%, negative = inhibition) at 1uM” value does the source give for `CCCOC(=O)C1[C@H]2C(=O)N(Cc3ccco3)C[C@]23C=C[C@H]1O3` (stereo partly drawn) here?
**A.** 17.7%

**Q.** Which “hERG current change (%, negative = inhibition) at 1uM” value does the source give for `O=C(O)CCCCCN1C(=O)C(O)=C(C(=O)/C=C/c2ccccc2)C1c1ccccc1[N+](=O)[O-]` (stereo not drawn) here?
**A.** 11.8%

**Q.** With `CCN1CCN(C(c2cc(OC)ccc2OC)c2nnnn2Cc2ccccc2)CC1.Cl` (stereo not drawn) as the compound, how does the “hERG current change (%, negative = inhibition) at 1uM” value read?
**A.** -5.39%

**Q.** `Cc1c(Cl)c([N+](=O)[O-])nn1CC(=O)NCc1cccs1` was tested. Which “hERG current change (%, negative = inhibition) at 1uM” value did it give?
**A.** 9.33%

**Q.** `CCn1cc(C(=O)NCc2ccc(Cl)cc2)c(=O)c2cc(S(=O)(=O)N(C)C)ccc21` was tested. Which “hERG current change (%, negative = inhibition) at 1uM” value did it give?
**A.** 10.7%

**Q.** Which “hERG current change (%, negative = inhibition) at 1uM” value does the source give for `Nc1c(C(=O)c2ccc(Cl)cc2)oc2ccccc12` here?
**A.** 18%

**Q.** With `Cn1nccc1NC(=O)COCC(=O)O` as the compound, how does the “hERG current change (%, negative = inhibition) at 1uM” value read?
**A.** 13.5%

**Q.** How did the “hERG current change (%, negative = inhibition) at 1uM” value turn out when `CCCCn1c2nc3ccccc3nc2c2c(=O)n(C(C)CC)cnc21` (stereo not drawn) was run?
**A.** -3.76%

**Q.** Which “hERG current change (%, negative = inhibition) at 1uM” value does the source give for `O=C(Nc1ccccc1N1CCOCC1)c1cccs1` here?
**A.** 7.08%

**Q.** Which “hERG current change (%, negative = inhibition) at 1uM” value does the source give for `COc1ccccc1N=c1oc2c(OC)cccc2cc1C(=O)NCc1ccco1` here?
**A.** 1.76%

**Q.** With `Cc1ccc(C)c(N2CCN(S(=O)(=O)c3ccc4c(c3)CC(=O)N4C)CC2)c1` as the compound, how does the “hERG current change (%, negative = inhibition) at 1uM” value read?
**A.** 16%

**Q.** For `CC(=O)c1ccc(OC(C)C)c(Cc2c(O)nc(N)[nH]c2=O)c1`, which “hERG current change (%, negative = inhibition) at 1uM” value is on record?
**A.** 9.37%

**Q.** How did the “hERG current change (%, negative = inhibition) at 1uM” value turn out when `Cc1c(C(=O)N2CCCCC2)c(S(=O)(=O)N2CCC(C)CC2)c(C)n1C` was run?
**A.** 7.34%

**Q.** For `Cc1c(CCC(=O)N[C@@H](CC(C)C)C(=O)O)c(=O)oc2c(C)c3oc4c(c3cc12)CCCC4`, which “hERG current change (%, negative = inhibition) at 1uM” value is on record?
**A.** 6.25%

**Q.** Which “hERG current change (%, negative = inhibition) at 1uM” value does the source give for `Cc1ccc(NC(=O)C2CCCN2S(=O)(=O)c2ccc(-c3ccc(=O)[nH]n3)s2)c(C)c1` (stereo not drawn) here?
**A.** 13%

**Q.** For `COc1ccc(-c2cc(=O)[nH]c(=S)[nH]2)cc1`, which “hERG current change (%, negative = inhibition) at 1uM” value is on record?
**A.** 14.1%

**Q.** With `Cc1ccccc1NC(=O)c1cccc(C(=O)Nc2ccccc2C)n1` as the compound, how does the “hERG current change (%, negative = inhibition) at 1uM” value read?
**A.** 10.2%

**Q.** Which “hERG current change (%, negative = inhibition) at 1uM” value does the source give for `CCN(CC)S(=O)(=O)c1ccc(Cc2ncc(C(F)(F)F)cc2Cl)s1` here?
**A.** 11.1%

**Q.** `O=C(Nc1ccccc1)C(=O)Nc1ccc2c(c1)N(C(=O)C1CC1)CCC2` was tested. Which “hERG current change (%, negative = inhibition) at 1uM” value did it give?
**A.** 3.46%

**Q.** With `N#Cc1c(NC(=O)Cn2c(=O)oc3ccccc32)oc(-c2ccccc2)c1-c1ccccc1` as the compound, how does the “hERG current change (%, negative = inhibition) at 1uM” value read?
**A.** 23.8%

**Q.** Which “hERG current change (%, negative = inhibition) at 1uM” value does the source give for `COCCn1c(NCc2ccco2)nc2c1c(=O)[nH]c(=O)n2C` here?
**A.** 21.7%
